Data as given in the supplement of paper PMC4967469.

Compound: Cn1cc(C2=C(c3cn(C4CCN(Cc5ccccn5)CC4)c4ccccc34)C(=O)NC2=O)c2ccccc21 [LY317615]
Assay: Viability of human cancer cell lines after 72 h of drug (GDSC screen)
Settings: top dose inferred
Protocol: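 Human cancer cell lines in 384-well plates, medium with 10% serum, drug for 72 h over a 256-fold dose range (nine 2-fold or five 4-fold steps up to the top dose). Adherent lines were fixed and stained with the nucleic acid dye Syto60, suspension lines read with resazurin; signal relative to control wells, capped at 0 and 100%. One two-parameter sigmoid per drug and line, fitted in a mixed model over all curves with the slope shared within a line.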

Cell Line | AUC | IC50 [µM]
HH (T-cell leukaemia, suspension, top dose 20 µM) | 0.721 | 6.61
HL-60 (acute myeloid leukaemia, suspension, top dose 20 µM) | 0.934 | > 20
HLE (liver, adherent, top dose 20 µM) | 0.972 | > 20
HMV-II (melanoma, adherent, top dose 20 µM) | 0.827 | 16.1
HN (head and neck, adherent, top dose 20 µM) | 0.983 | > 20
HO-1-N-1 (head and neck, adherent, top dose 20 µM) | 0.93 | > 20
HO-1-u-1 (head and neck, adherent, top dose 20 µM) | 0.94 | > 20
HOP-62 (lung adenocarcinoma, adherent, top dose 20 µM) | 0.706 | 4.76
HOP-92 (large cell lung carcinoma, adherent, top dose 20 µM) | 0.984 | > 20
HOS (osteosarcoma, adherent, top dose 20 µM) | 0.99 | > 20
HPAC (pancreas, adherent, top dose 20 µM) | 0.872 | > 20
HPAF-II (pancreas, adherent, top dose 20 µM) | 0.801 | 13.4
HSC-2 (head and neck, adherent, top dose 20 µM) | 0.981 | > 20
HSC-3 (head and neck, adherent, top dose 20 µM) | 0.965 | > 20
HSC-4 (head and neck, adherent, top dose 20 µM) | 0.976 | > 20
HSC-39 (stomach, suspension, top dose 20 µM) | 0.844 | 11.5
HT55 (large intestine, adherent, top dose 20 µM) | 0.989 | > 20
HT (B-cell lymphoma, suspension, top dose 20 µM) | 0.924 | > 20
HT-3 (cervix, adherent, top dose 20 µM) | 0.922 | > 20
HT-29 (large intestine, adherent, top dose 20 µM) | 0.6 | 2.35
HT-115 (large intestine, adherent, top dose 20 µM) | 0.965 | > 20

Cell Line | AUC | IC50 [µM]
HT-144 (melanoma, adherent, top dose 20 µM) | 0.981 | > 20
HT-1080 (fibrosarcoma, adherent, top dose 20 µM) | 0.959 | > 20
HT-1197 (bladder, adherent, top dose 20 µM) | 0.981 | > 20
HT-1376 (bladder, adherent, top dose 20 µM) | 0.985 | > 20
HTC-C3 (thyroid, adherent, top dose 20 µM) | 0.855 | 19.1
HUTU-80 (digestive system, adherent, top dose 20 µM) | 0.897 | 17.3
HeLa (cervix, adherent, top dose 20 µM) | 0.942 | > 20
Hep 3B2_1-7 (liver, adherent, top dose 20 µM) | 0.987 | > 20
Hey (ovary, adherent, top dose 20 µM) | 0.96 | > 20
Hs633T (fibrosarcoma, adherent, top dose 20 µM) | 0.969 | > 20
Hs683 (glioma, adherent, top dose 20 µM) | 0.876 | > 20
Hs746T (stomach, adherent, top dose 20 µM) | 0.975 | > 20
Hs766T (pancreas, adherent, top dose 20 µM) | 0.87 | > 20
Hs939-T (melanoma, adherent, top dose 20 µM) | 0.986 | > 20
Hs940-T (melanoma, adherent, top dose 20 µM) | 0.799 | 12.1
Hs-445 (Hodgkin lymphoma, suspension, top dose 20 µM) | 0.56 | 1.79
Hs-578-T (breast, adherent, top dose 20 µM) | 0.981 | > 20
HuCCT1 (biliary tract, adherent, top dose 20 µM) | 0.675 | 4.08
HuH-7 (liver, adherent, top dose 20 µM) | 0.987 | > 20
HuO9 (osteosarcoma, adherent, top dose 20 µM) | 0.857 | 19.2
HuO-3N1 (osteosarcoma, adherent, top dose 20 µM) | 0.842 | > 20

Cell Line | AUC | IC50 [µM]
HuP-T3 (pancreas, adherent, top dose 20 µM) | 0.897 | > 20
HuP-T4 (pancreas, adherent, top dose 20 µM) | 0.473 | 1.05
IA-LM (large cell lung carcinoma, adherent, top dose 20 µM) | 0.942 | > 20
IGR-1 (melanoma, adherent, top dose 20 µM) | 0.806 | 8.74
IHH-4 (thyroid, semi-adherent, top dose 20 µM) | 0.99 | > 20
IM-95 (stomach, adherent, top dose 20 µM) | 0.643 | 3.19
IMR-5 (neuroblastoma, adherent, top dose 20 µM) | 0.91 | > 20
IPC-298 (melanoma, adherent, top dose 20 µM) | 0.947 | > 20
IST-MEL1 (melanoma, adherent, top dose 20 µM) | 0.886 | > 20
IST-MES1 (mesothelioma, adherent, top dose 20 µM) | 0.908 | > 20
IST-SL1 (small cell lung carcinoma, semi-adherent, top dose 20 µM) | 0.892 | > 20
IST-SL2 (small cell lung carcinoma, suspension, top dose 20 µM) | 0.876 | 19.7
J82 (bladder, adherent, top dose 20 µM) | 0.815 | 10.9
JAR (urogenital system, adherent, top dose 20 µM) | 0.844 | 13.8
JEG-3 (urogenital system, adherent, top dose 20 µM) | 0.989 | > 20
JHH-1 (liver, adherent, top dose 20 µM) | 0.891 | > 20
JHH-2 (liver, adherent, top dose 20 µM) | 0.983 | > 20
JHH-4 (liver, adherent, top dose 20 µM) | 0.935 | > 20
JHH-6 (liver, adherent, top dose 20 µM) | 0.987 | > 20
JHH-7 (liver, adherent, top dose 20 µM) | 0.956 | > 20
JHOS-2 (ovary, adherent, top dose 20 µM) | 0.688 | 4.62

Cell Line | AUC | IC50 [µM]
JHOS-3 (ovary, adherent, top dose 20 µM) | 0.753 | 8.38
JHU-011 (head and neck, adherent, top dose 20 µM) | 0.763 | 7.08
JHU-022 (head and neck, adherent, top dose 20 µM) | 0.793 | 12
JIMT-1 (breast, adherent, top dose 20 µM) | 0.893 | > 20
JJN-3 (haematopoietic neoplasm, suspension, top dose 20 µM) | 0.893 | 16.2
JM1 (B-cell lymphoma, suspension, top dose 20 µM) | 0.713 | 4.52
JSC-1 (B-cell lymphoma, suspension, top dose 20 µM) | 0.885 | > 20
JURL-MK1 (chronic myeloid leukaemia, suspension, top dose 20 µM) | 0.773 | 7.75
JVM-2 (lymphoid neoplasm, suspension, top dose 20 µM) | 0.95 | > 20
JVM-3 (lymphoid neoplasm, suspension, top dose 20 µM) | 0.785 | 8.71
JiyoyeP-2003 (Burkitt lymphoma, suspension, top dose 20 µM) | 0.882 | 16.8
K2 (melanoma, adherent, top dose 20 µM) | 0.95 | > 20
K5 (thyroid, adherent, top dose 20 µM) | 0.939 | > 20
KALS-1 (glioma, adherent, top dose 20 µM) | 0.871 | > 20
KARPAS-45 (lymphoblastic leukaemia, suspension, top dose 20 µM) | 0.547 | 1.64
KARPAS-299 (anaplastic large cell lymphoma, suspension, top dose 20 µM) | 0.881 | 15
KARPAS-422 (B-cell lymphoma, suspension, top dose 20 µM) | 0.931 | > 20
KARPAS-620 (haematopoietic neoplasm, suspension, top dose 20 µM) | 0.858 | 12.8
KASUMI-1 (acute myeloid leukaemia, suspension, top dose 20 µM) | 0.493 | 1.2

By IC50 is meant the dose at which the fit gives 50% viability; a fit beyond the top or the lowest dose is shown as a bound at that dose. The AUC spans the tested range (256-fold, ending at the top dose) of the same fit; values near 1 show little effect. A top dose marked as inferred was derived from the fitted curves, not read from the paper.
